T1: UNK ZnF1-6 (called full-length) (human, UniProt Q9C0B0 30-357)
T1 sequence: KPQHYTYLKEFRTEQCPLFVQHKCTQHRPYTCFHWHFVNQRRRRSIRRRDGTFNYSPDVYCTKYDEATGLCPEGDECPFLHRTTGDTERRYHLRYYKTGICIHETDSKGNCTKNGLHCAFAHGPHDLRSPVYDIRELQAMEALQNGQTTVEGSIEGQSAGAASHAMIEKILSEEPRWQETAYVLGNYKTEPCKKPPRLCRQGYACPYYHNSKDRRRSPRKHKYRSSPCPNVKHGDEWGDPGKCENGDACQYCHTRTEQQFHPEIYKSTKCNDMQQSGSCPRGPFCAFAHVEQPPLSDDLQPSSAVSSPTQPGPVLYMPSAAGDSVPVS

B1: chr1:225789428:225789553:+|3pUTR|ENSG00000143742|unk|FALSE|unique (ssRNA)
RNA: GGGAGUUCUACAGUCCGACGAUCUUAGAGAAAGUGUUGGGACAGAAAGUACUUUAUGUAACUAAGUGGGCUGUUCAGAAGCUUAGAGGUCAUUUUUUGUAAUUUUCUUUUUAAUUACUUUAGAGAGCUAGGGAUGCAAAUGUUCAACAGAGGAUUGAGCAUCA
B2: chr11:104891169:104891404:-|CDS|ENSG00000204403|control|control|control (ssRNA)
RNA: GGGAGUUCUACAGUCCGACGAUCUUUGCUGCUCACCCAGAGCACCAGUCCUCAGACAGCACAUUCCUGGUGUUUAUGUCACAUAGCAUCCUGAAUGGAAUCUGUGGGACCAAGCACUGGGAUCAAGAGCCAGAUGUUCUUCACCAACAGAGGAUUGAGCAUCA
B3: ENSG00000107863:be:win_501|CDS|ENSG00000107863|bound_else_gene|NA|bound_elsewhere_windowed (ssRNA)
RNA: GGGAGUUCUACAGUCCGACGAUCGUUUACAAAGGAUGUCACAGCACUGGCAUAUUCUCAAGAUGCCUACCUGAAAGGCAACGAAGCUUAUAGCGGCAAUGCCCGCAAUAUACCUGAACCUCCACCAAUCUGCUAUCCCUGGCUCAACAGAGGAUUGAGCAUCA
B4: ENSG00000136451:be:win_3251|3pUTR|ENSG00000136451|bound_else_gene|NA|bound_elsewhere_windowed (ssRNA)
RNA: GGGAGUUCUACAGUCCGACGAUCCUUAGUGUAAAAUAAUUUUAUAAAUGAUCUUUUGUACUUUAGGACAUUAAAUUGUACAACUUUUGUAUAUAUAAAAGCUUAGGAACUUUCUGUUUAGCAGGAAGGCAACACAUUCCUACACAACAGAGGAUUGAGCAUCA
B5: chr17:3662948:3663056:-|3pUTR|ENSG00000213977|unk|FALSE|unique (ssRNA)
RNA: GGGAGUUCUACAGUCCGACGAUCAGUUUGAUACAAAAUGUUUUUAUCGUACUCUUUGGAGAUGCCCAUUCUACUUUUGAAUUUAGCUUUUACUAAUUCGCAUCUGGAAGCUCAGCAAGUGCACAAGCCUUACUUUGGUUACCGCAACAGAGGAUUGAGCAUCA
B6: chr10:128098031:128098192:-|3pUTR|ENSG00000148773|msi1|FALSE|unique (ssRNA)
RNA: GGGAGUUCUACAGUCCGACGAUCCAUCUUCAUUUACUUUCCACUUUGCCCCCUGUCCUCUCUGUGUUCCCCAAAUCAGAGAAUAGCCCGCCAUCCCCCAGGUCACCUGUCUGGAUUCCUCCCCAUUCACCCACCUUGCCAGGUCAACAGAGGAUUGAGCAUCA

The other results are listed elsewhere or left out.

The target of the assay is T1, UNK ZnF1-6 (called full-length). In words: nsRBNS (natural sequence RNA bind-n-seq); RBNS binding buffer (assumed for nsRBNS): 25 mM Tris pH 7.5, 150 mM KCl, 3 mM MgCl2, 0.01% Triton X-100, 500 ug/ml BSA, 20 U/ml SUPERase-In, 4 C; UNK is unkempt and MSI1 is Musashi-1; names of the RNAs are library labels; protein concentration not given here; high values mean tight binding.
Molecule B1 came in with a binding signal of 1.53 enrichment R.
B2 came in with a binding signal of 0.383 enrichment R.
In the case of B3 it was 0.541 enrichment R; in that of B4, 6.05 enrichment R.
In the case of B5 it was 2.12 enrichment R.
In the case of B6 it was 1.09 enrichment R.
